Measurements from PubChem BioAssay AID1460 (National Center for Advancing Translational Sciences (NCATS), 2008).
Out of some 270,000 compounds screened, about 5,800 (2.1%) were called active. Inconclusive results, whose numbers are uncertain, are shown with a selection of clear calls. The call rests on the fitted dose curve; in most records, active means well fitted inhibition curve with a large enough effect; inconclusive means small, poorly fitted or top-dose-only effect; inactive means flat fitted curve, though single readings scatter. Where the call is inconclusive, the potency comes from a doubtful curve fit.

Target: Microtubule-associated protein tau (Homo sapiens) (UniProt P10636)
Chain of UniProt P10636 (P10636 whole entry, looked up): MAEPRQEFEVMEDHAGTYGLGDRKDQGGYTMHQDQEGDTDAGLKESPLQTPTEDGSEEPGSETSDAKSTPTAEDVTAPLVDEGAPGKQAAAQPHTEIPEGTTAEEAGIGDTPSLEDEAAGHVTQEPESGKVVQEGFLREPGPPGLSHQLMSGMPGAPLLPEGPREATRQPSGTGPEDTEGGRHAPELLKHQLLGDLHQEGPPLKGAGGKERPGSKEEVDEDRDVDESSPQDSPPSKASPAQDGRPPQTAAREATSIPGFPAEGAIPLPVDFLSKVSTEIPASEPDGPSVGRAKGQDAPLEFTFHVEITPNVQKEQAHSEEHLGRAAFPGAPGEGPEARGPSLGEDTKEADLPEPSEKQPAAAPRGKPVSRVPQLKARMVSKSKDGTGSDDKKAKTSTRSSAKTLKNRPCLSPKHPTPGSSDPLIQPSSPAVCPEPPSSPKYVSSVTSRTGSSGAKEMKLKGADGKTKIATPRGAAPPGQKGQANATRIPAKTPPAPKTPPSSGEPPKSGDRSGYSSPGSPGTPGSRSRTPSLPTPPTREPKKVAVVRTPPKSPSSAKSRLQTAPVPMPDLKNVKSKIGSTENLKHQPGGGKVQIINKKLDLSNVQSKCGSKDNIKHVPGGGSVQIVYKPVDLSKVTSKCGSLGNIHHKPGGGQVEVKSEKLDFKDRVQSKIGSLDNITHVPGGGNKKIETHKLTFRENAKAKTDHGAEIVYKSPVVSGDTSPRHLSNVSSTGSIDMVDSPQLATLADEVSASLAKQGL
Experiment: qHTS for Inhibitors of Tau Fibril Formation, Thioflavin T Binding; further: nearly all actives have a fitted effect of over 55% in size
Conditions: recombinant tau K18 P301L, heparin-induced fibrillization, ThT fluorescence; series mostly up to 57.4 µM; activity, negative = inhibition: at the top concentration
Summary of the method: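 Fibril formation assay: tau K18 P301L at 15 uM with trace Alexa 594 label, heparin inducer 20 uM, pH 7 sodium acetate buffer, 37 C for 6 hr; endpoint ThT signal.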
On the % scale 0 is the no-effect control and ±100 the full control effect; potency means the concentration at half of the fitted maximal effect; tags describe the fitted curve by direction and shape.

Row | SMILES | Potency | activity, negative = inhibition
1 | CCOC(=O)Nc1cccc(Nc2ccccc2)c1 | inconclusive: 12.6 µM [inhibitor, partial curve] | –
2 | CCCSC1=N/C(=C\c2ccc([N+](=O)[O-])o2)C(=O)S1 | active: 12.6 µM | –
3 | O=C(O)CSc1cc(C(=O)c2cc(F)ccc2O)cn2c(=O)c3c(-c4ccccc4)csc3nc12 | active: 28.2 µM | –
4 | COC/C=C/C1=CC2=CC(=O)C(C)(OC(=O)CCC(=O)OC)C(=O)C2=CO1 (stereo unspecified) | active: 15.8 µM | –
5 | COc1ccc(/C=C2\SC(=O)N(CCNC(=O)CCS(=O)(=O)c3ccc(C)cc3)C2=O)cc1 | inconclusive: 14.1 µM [inhibitor, partial curve] | –
6 | CCOC(=O)c1[nH]c2c(c1C)C(=O)CC(c1ccc(N(C)C)cc1)C2 (stereo unspecified) | inconclusive: 14.1 µM [inhibitor, partial curve] | –
7 | COc1ccc(/C=N/NC(=O)CCc2ccccc2)cc1O | inconclusive: 15.8 µM [inhibitor, partial curve] | –
8 | CCOc1ccc(S(=O)(=O)NCCSCc2ccco2)cc1 | – | inactive: -20.4%
9 | CCOC(=O)c1ccc(NS(=O)(=O)c2cc(-c3nnnn3C(C)C)ccc2OC)cc1 | – | inactive: -14.8%
10 | Cc1ccc(O)c(C=Nc2ccc3[nH]ncc3c2)c1 | inconclusive: 12.6 µM [inhibitor, partial curve] | –
11 | CCOc1ccc(NC(=O)N2CC3CCCN3c3ccccc32)cc1 (stereo unspecified) | inconclusive: 20 µM [inhibitor, single point] | –
12 | CCCCS/C(N)=N/N=C/c1cc(C)ccc1O | inconclusive: 0.794 µM [inhibitor, full curve] | –
13 | NC(=O)c1ccc(-n2nnnc2Oc2ccccc2C(=O)N2CCOCC2)cc1 | – | inactive: 7.28%
14 | COc1cc(C)c(-c2[nH]ncc2-c2csc(C)n2)c(O)c1 | – | inactive: -5.83%
15 | C=CCSc1nnc2nc3[nH]c4c(C)cccc4c3nn12 | active: 15.8 µM | –
16 | O=C1c2ccccc2NC2(CCCC2)N1O | – | inactive: -4.9%
17 | Cc1nn(-c2ccccc2)c2nc(-c3cccs3)cc(C(=O)NN)c12 | – | inactive: 2.49%
18 | CCOC(=O)C1CCN(C(c2cc3ccc(C)cc3[nH]c2=O)c2nnnn2C2CCCCC2)CC1 (stereo unspecified) | inconclusive: 22.4 µM [inhibitor, partial curve] | –
19 | CC(/C=C/c1ccc2c(c1)OCO2)=N/NC(=O)c1ccc(C)nc1 | inconclusive: 3.98 µM [inhibitor, partial curve] | –
20 | COC(=O)c1c(-c2ccc(F)cc2)csc1NC(=O)C1CCCO1 (stereo unspecified) | inconclusive: 28.2 µM [inhibitor, single point] | –
21 | COc1cccc(Nc2nc(-c3sc(NC(=O)c4ccccc4)nc3C)cs2)c1 | active: 17.8 µM | –
22 | O=C1/C(=C\c2ccc(O)c(O)c2)N=C2CCCCCN12 | inconclusive: 39.8 µM [inhibitor, single point] | –
23 | Cc1cccc(NC(=O)c2cc([N+](=O)[O-])ccc2Cl)c1O | inconclusive: 25.1 µM [inhibitor, single point] | –
24 | Cc1ccc(F)cc1NC(=O)CSc1nc(-c2cccs2)cc(C(F)(F)F)n1 | – | inactive: 16.4%

Row | SMILES | Potency | activity, negative = inhibition
25 | Cc1ccc(NCc2nnc(SCC(=O)Nc3ccccc3)n2CC2CCCO2)c(C)c1 (stereo unspecified) | – | inactive: -15.8%
26 | O=C(C1=C(O)C(=O)N(CCN2CCOCC2)C1c1ccncc1)c1ccco1 (stereo unspecified) | – | inactive: -14.9%
27 | CCOc1ccc(NC(=O)C(CC)n2nc(C)c3c(C)n(-c4ccccc4)nc3c2=O)cc1 (stereo unspecified) | inconclusive: 39.8 µM [inhibitor, single point] | –
28 | Cn1ncc2cc(NC(=S)NC(=O)c3ccccc3)ccc21 | inconclusive: 17.8 µM [inhibitor, partial curve] | –
29 | CN(C)c1ccnc(Nc2ccc(F)cc2)c1C#N | inconclusive: 7.94 µM [activator, single point] | –
30 | CCCCc1ccc(NC(=O)CSc2nc3ccccc3nc2N2CCCCC2)cc1 | inconclusive: 39.8 µM [inhibitor, single point] | –
31 | CCCOc1ccc(Oc2nc(NC)nc(N3CCOCC3)n2)nn1 | – | inactive: 7.6%
32 | COC(=O)c1sc(N2C(=O)c3oc4ccc(C)cc4c(=O)c3C2c2ccc(OC)cc2)nc1C (stereo unspecified) | inconclusive: 0.126 µM [activator, full curve, poor fit] | –
33 | Cc1c(/C(O)=C2\C(=O)C(=O)N(CCCN(C)C)C2c2ccccc2)cnn1-c1ccccc1 (stereo unspecified) | – | inactive: -8.31%
34 | O=C(/C=C/c1cccs1)N1CCN(c2ccc(O)cc2)CC1 | inconclusive: 14.1 µM [inhibitor, partial curve] | –
35 | CCNc1nc(NCC)nc(N/N=C/c2ccc(OC)cc2)n1 | inconclusive: 10 µM [inhibitor, partial curve] | –
36 | CCOc1ccccc1-n1nnnc1SCC(=O)OC | – | inactive: -4.09%
37 | Cc1ccc(C(=O)O)cc1NC(=O)c1nsc2ccccc12 | inconclusive: 28.2 µM [inhibitor, partial curve] | –
38 | CCOc1ccccc1CNC(=O)c1ccc(-n2c(C)cc3c2CCC(C)C3)cc1 (stereo unspecified) | inconclusive: 14.1 µM [inhibitor, partial curve] | –
39 | Cc1ccnc(Nc2nc3ccccc3s2)n1 | – | inactive: -16%
40 | Cc1ccc(-c2onc(C)c2C)cc1S(=O)(=O)N1CCN(c2ccccc2F)CC1 | – | inactive: -5.65%
41 | CCCOc1ccc(Cc2nn[nH]n2)cc1 | inconclusive: 39.8 µM [inhibitor, single point] | –
42 | COc1cc(OC)c(NC(=O)Nc2ccc3c(c2)N(C)C(=O)c2ccccc2S3)cc1Cl | inconclusive: 44.7 µM [inhibitor, single point] | –
43 | COc1ccccc1CCn1cnc2c3cc(C)ccc3n(C)c2c1=O | inconclusive: 17.8 µM [inhibitor, partial curve, poor fit] | –
44 | COc1ccc(-c2csc(NC(=O)c3ccco3)n2)cc1 | inconclusive: 39.8 µM [activator, single point] | –
45 | COC(=O)c1sc2ncccc2c1OCc1cccc(Cl)c1 | inconclusive: 28.2 µM [inhibitor, partial curve] | –
46 | COc1ccccc1N=c1oc2cc(O)ccc2cc1C(=O)NCC1CCCO1 (stereo unspecified) | inconclusive: 31.6 µM [inhibitor, single point] | –
47 | CCN(CC)c1ccc(NC(=S)NC(=O)c2cccs2)cc1 | active: 6.31 µM | –
48 | Cc1cccc(N2CCN(C(=O)Cc3ccc(-n4c(=O)[nH]c5ccsc5c4=O)cc3)CC2C)c1 (stereo unspecified) | inconclusive: 14.1 µM [inhibitor, partial curve, poor fit] | –

Row | SMILES | Potency | activity, negative = inhibition
49 | CCOC(=O)c1c(NC(=S)N2CCCCC2)sc2c1CCN(C(=O)OCC)C2 | inconclusive: 14.1 µM [inhibitor, partial curve] | –
50 | O=C(NCCc1ccc(Cl)cc1)c1nnc(Cc2ccc(Cl)cc2Cl)o1 | – | inactive: 6.35%
51 | Cc1ccc(S(=O)(=O)Oc2ccc(/C=C(/NC(=O)c3ccccc3)C(=O)NCC(=O)O)cc2)cc1 | – | inactive: -13.7%
52 | O=C(c1ccco1)N1CCN(c2c([N+](=O)[O-])nn(-c3ccc(Cl)cc3)[n+]2[O-])CC1 | inconclusive: 10 µM [inhibitor, partial curve] | –
53 | COc1ccc(-c2cc(C(F)(F)F)c(C#N)c(SCC(=O)Nc3nc(C)co3)n2)cc1 | inconclusive: 39.8 µM [inhibitor, single point] | –
54 | COc1ccc(OC)c(NC(=O)c2cc3oc4ccccc4c3cc2O)c1 | inconclusive: 1.26 µM [inhibitor, full curve] | –
55 | C=CCc1c(C)nc(-c2ccccc2)nc1N/N=C(\C)c1ccc(N)cc1 | inconclusive: 28.2 µM [inhibitor, single point] | –
56 | COc1cc(/C=C2\SC(=Nc3ccccc3)N(Cc3ccco3)C2=O)ccc1OC(C)C(=O)O (stereo unspecified) | – | inactive: -9.2%
57 | Cc1ccc(Cl)c(NC(=O)COC(=O)CNS(=O)(=O)/C=C/c2ccccc2)c1Cl | – | inactive: -13.8%
58 | COc1ccc(NC(=S)N2CCN(C(c3ccccc3)c3ccccc3)CC2)c(OC)c1 | – | inactive: -7.91%
59 | CC1=Nc2ccccc2/C1=C/c1nc(-c2ccc(C)s2)oc1O | active: 2.82 µM | –
60 | CCOC(=O)Cc1csc(Nc2ccc(Cl)cc2)n1 | inconclusive: 14.1 µM [inhibitor, partial curve] | –
61 | CN(C)CC(=O)N1c2ccccc2CCc2ccc(NC(=O)c3ccc(N)cc3)cc21 | inconclusive: 35.5 µM [inhibitor, single point] | –
62 | O=C(Nc1ccc2ccccc2c1)c1cnccn1 | inconclusive: 12.6 µM [inhibitor, partial curve] | –
63 | COc1ccccc1N1CCN(C(=O)CSc2ncccc2-c2nc3ccccc3[nH]2)CC1 | inconclusive: 22.4 µM [inhibitor, partial curve, poor fit] | –
64 | Cc1ccc(NC(=S)N/N=C/c2c(C)[nH]c3ccccc23)cc1 | inconclusive: 14.1 µM [inhibitor, partial curve] | –
65 | O=S(=O)(NCCc1ccncc1)c1cc(Br)ccc1F | – | inactive: 2.46%
66 | FC(F)Oc1ccc(NC(=S)NNc2ccnc3cc(Cl)ccc23)cc1 | inconclusive: 31.6 µM [inhibitor, partial curve, poor fit] | –
67 | COc1cc([C@@H]2[C@H]3CNCC=C3C(C#N)=C(N)C2(C#N)C#N)ccc1OC(C)C | inconclusive: 25.1 µM [inhibitor, single point] | –
68 | COc1ccc(C2NC3=C(CCC3)C3(C#N)C(OC)(OC)N=C(N)C23C#N)cc1 (stereo unspecified) | inconclusive: 17.8 µM [inhibitor, partial curve] | –
69 | Cc1noc(/C=C/NCc2cccnc2)c1S(=O)(=O)N(C)CC(=O)N1CCc2ccccc21 | inconclusive: 31.6 µM [inhibitor, partial curve, poor fit] | –
70 | C/C(=N\NC(=O)c1ccc(O)cc1)c1ccc(N2CCOCC2)cc1 | inconclusive: 2 µM [inhibitor, partial curve] | –
71 | C/C(=N\NC(=O)C1COc2ccccc2O1)c1cc2ccccc2o1 (stereo unspecified) | inconclusive: 15.8 µM [inhibitor, partial curve] | –
